Holding throughout (assay): protein-binding microarray (PBM)
What all share (details): PBM: ~300 nM protein, 6 mM HEPES pH 7.8, 80 mM KCl, 0.5 mM EDTA, 0.5 mM EGTA, 6% glycerol, 35 ng/ul poly-dIdC, 1% milk, 1 h, room temperature; Ap Aiptasia and Nv Nematostella (sea anemones) / Co Capsaspora / Aq Amphimedon (sponge) / Dm Drosophila / Hu human; RHD is the Rel homology domain; high values mean tight binding; most listed sequences are background and not binding sites; double strand, one strand shown

In one experiment the target is T1, GST-Ap-NF-kB RHD (UniProt A0A913YAJ5).
T1 sequence: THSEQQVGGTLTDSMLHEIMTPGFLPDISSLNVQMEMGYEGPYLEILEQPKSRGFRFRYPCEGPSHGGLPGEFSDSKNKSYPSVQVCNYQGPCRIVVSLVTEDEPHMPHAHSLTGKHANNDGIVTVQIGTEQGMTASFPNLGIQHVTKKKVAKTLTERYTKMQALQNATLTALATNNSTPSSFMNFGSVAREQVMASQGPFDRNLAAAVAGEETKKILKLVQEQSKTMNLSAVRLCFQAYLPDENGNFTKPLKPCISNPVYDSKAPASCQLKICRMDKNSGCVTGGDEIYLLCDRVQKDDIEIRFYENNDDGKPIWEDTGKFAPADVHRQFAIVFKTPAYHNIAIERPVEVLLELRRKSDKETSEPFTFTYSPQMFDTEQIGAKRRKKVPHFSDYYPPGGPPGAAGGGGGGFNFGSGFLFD

For experiment [1], the target named is T2, GST-Nv-NF-kB (Cys allele) (UniProt E5G601).
T2 sequence: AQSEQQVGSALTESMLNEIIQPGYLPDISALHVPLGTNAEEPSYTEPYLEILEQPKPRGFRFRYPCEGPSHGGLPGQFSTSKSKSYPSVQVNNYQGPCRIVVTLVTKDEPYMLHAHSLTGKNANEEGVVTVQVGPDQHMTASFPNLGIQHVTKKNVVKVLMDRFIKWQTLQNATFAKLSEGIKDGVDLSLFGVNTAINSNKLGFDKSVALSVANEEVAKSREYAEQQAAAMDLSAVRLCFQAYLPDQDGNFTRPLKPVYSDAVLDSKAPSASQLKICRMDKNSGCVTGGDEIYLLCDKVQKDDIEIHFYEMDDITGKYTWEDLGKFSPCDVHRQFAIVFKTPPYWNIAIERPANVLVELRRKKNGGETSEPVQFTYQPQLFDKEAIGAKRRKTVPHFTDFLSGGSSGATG

Another experiment deals with T3, GST-Co-NF-kB (UniProt F1ARL5).
T3 sequence: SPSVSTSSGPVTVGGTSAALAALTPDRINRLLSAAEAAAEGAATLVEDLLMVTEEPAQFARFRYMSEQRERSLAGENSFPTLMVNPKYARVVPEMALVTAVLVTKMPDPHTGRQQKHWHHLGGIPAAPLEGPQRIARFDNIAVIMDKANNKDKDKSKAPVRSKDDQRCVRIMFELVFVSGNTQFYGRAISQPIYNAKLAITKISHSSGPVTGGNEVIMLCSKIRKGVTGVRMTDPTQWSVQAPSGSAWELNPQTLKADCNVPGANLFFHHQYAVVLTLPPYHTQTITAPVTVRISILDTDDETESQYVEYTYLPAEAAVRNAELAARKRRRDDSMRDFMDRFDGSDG

The next experiment has as its target T4, GST-Dm-Relish (UniProt Q94527).
T4 sequence: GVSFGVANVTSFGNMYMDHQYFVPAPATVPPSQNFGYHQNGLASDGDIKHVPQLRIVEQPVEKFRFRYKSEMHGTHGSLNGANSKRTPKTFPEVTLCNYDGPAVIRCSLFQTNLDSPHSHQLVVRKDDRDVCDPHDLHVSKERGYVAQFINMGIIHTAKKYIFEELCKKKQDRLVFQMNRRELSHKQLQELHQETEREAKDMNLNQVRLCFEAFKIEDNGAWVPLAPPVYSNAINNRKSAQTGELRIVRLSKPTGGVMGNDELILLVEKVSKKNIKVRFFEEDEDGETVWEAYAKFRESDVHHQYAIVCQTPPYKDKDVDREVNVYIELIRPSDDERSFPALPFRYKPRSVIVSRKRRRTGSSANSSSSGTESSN

The next experiment addresses T5, GST-Aq-NF-kB (UniProt A9Y5G7).
T5 sequence: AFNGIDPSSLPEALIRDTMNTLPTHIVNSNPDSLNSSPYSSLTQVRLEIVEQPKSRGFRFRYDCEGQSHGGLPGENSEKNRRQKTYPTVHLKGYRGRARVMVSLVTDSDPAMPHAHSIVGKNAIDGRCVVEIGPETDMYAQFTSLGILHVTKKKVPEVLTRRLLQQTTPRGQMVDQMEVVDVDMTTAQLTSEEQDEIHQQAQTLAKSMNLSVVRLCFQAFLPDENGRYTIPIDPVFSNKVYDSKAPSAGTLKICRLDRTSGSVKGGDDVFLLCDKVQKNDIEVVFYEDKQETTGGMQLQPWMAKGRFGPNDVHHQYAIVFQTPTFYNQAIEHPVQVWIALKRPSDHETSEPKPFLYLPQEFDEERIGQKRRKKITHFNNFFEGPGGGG

Only a part is listed here, and it is no random draw. The list includes weakly bound sequences.

Results on 27 sequences are retold here after article PMC5700166.

Consider “CCGATTAACATCATGTGCAGCGATGATGTTAATCGGGTCTTGATTCGCTTGACGCTGCTG”, for which the binding signal with GST-Ap-NF-kB RHD is -0.535 z-score; in experiment [1] it was -0.526 z-score; in the experiment with GST-Co-NF-kB, -1.5 z-score; with GST-Dm-Relish, -0.693 z-score; in the experiment with GST-Aq-NF-kB, -0.468 z-score.
The like results for “CCGATTAACATCAATTCCGGCGCTGATGTTAATCGGGTCTTGATTCGCTTGACGCTGCTG” were, in that order, -0.109 z-score, -0.319 z-score, 0.0663 z-score, -0.282 z-score and -0.19 z-score.
Taken in the same sequence, the figures for “CCGATTAACATCAACAAAAAGCGTGATGTTAATCGGGTCTTGATTCGCTTGACGCTGCTG” were -0.235 z-score, -0.422 z-score, 0.912 z-score, -0.169 z-score and -0.282 z-score.
The like results for “CCGATTAACATCATATCAAGTAGTGATGTTAATCGGGTCTTGATTCGCTTGACGCTGCTG” were, in that order, -0.93 z-score, -0.82 z-score, 0.438 z-score, -0.379 z-score and -0.468 z-score.
With “CCGATTAACATCATGAGTTCCAATGATGTTAATCGGGTCTTGATTCGCTTGACGCTGCTG”, the binding signal with GST-Ap-NF-kB RHD is -0.449 z-score; in experiment [1], -0.325 z-score; with GST-Co-NF-kB, -0.199 z-score; in the experiment with GST-Dm-Relish it was -1.01 z-score; with GST-Aq-NF-kB, -0.582 z-score.
The like results for “CCGATTAACATCAGGTCCTCTGGTGATGTTAATCGGGTCTTGATTCGCTTGACGCTGCTG” were, in that order, -0.0267 z-score, -0.442 z-score, 0.117 z-score, -0.355 z-score and 0.0979 z-score.
The like results for “CCGATTAACATCATACACATATTTGATGTTAATCGGGTCTTGATTCGCTTGACGCTGCTG” were, in that order, 0.0136 z-score, -0.602 z-score, -0.111 z-score, -0.371 z-score and -0.396 z-score.
Taken in the same sequence, the figures for “CCGATTAACATCACTTACGAATTTGATGTTAATCGGGTCTTGATTCGCTTGACGCTGCTG” were -0.694 z-score, -0.0654 z-score, 0.239 z-score, -0.112 z-score and -0.283 z-score.
Turning to “CCGATTAACATCAAGAGATTTCCTGATGTTAATCGGGTCTTGATTCGCTTGACGCTGCTG”, the binding signal is -0.18 z-score with GST-Ap-NF-kB RHD; -0.134 z-score in experiment [1]; 0.233 z-score in the experiment with GST-Co-NF-kB; -0.535 z-score with GST-Dm-Relish; 0.247 z-score with GST-Aq-NF-kB.
Regarding “CCGATTAACATCAGCCACTCTGATGATGTTAATCGGGTCTTGATTCGCTTGACGCTGCTG”, the binding signal was -0.156 z-score with GST-Ap-NF-kB RHD; -0.677 z-score in experiment [1]; -0.155 z-score with GST-Co-NF-kB; -0.486 z-score with GST-Dm-Relish; -0.22 z-score with GST-Aq-NF-kB.
Consider “CCGATTAACATCATCGATGGCCTTGATGTTAATCGGGTCTTGATTCGCTTGACGCTGCTG”, for which the binding signal with GST-Ap-NF-kB RHD was -0.489 z-score; in experiment [1] it was -0.128 z-score; with GST-Co-NF-kB it was -1.01 z-score; with GST-Dm-Relish, -0.809 z-score; with GST-Aq-NF-kB, -0.55 z-score.
Turning to “CCGATTAACATCAACCCACCAGGTGATGTTAATCGGGTCTTGATTCGCTTGACGCTGCTG”, the binding signal is 0.474 z-score with GST-Ap-NF-kB RHD; -0.167 z-score in experiment [1]; 0.031 z-score with GST-Co-NF-kB; 0.283 z-score with GST-Dm-Relish; 0.147 z-score with GST-Aq-NF-kB.
Turning to “CCGATTAACATCAGGAAACGCCCTGATGTTAATCGGGTCTTGATTCGCTTGACGCTGCTG”, the binding signal with GST-Ap-NF-kB RHD is 0.604 z-score; in experiment [1], 0.466 z-score; with GST-Co-NF-kB, -0.0947 z-score; with GST-Dm-Relish it was 0.949 z-score; with GST-Aq-NF-kB it was 3.05 z-score.
Turning to “CCGATTAACATCATAGTCTTTGTTGATGTTAATCGGGTCTTGATTCGCTTGACGCTGCTG”, the binding signal was -0.0861 z-score with GST-Ap-NF-kB RHD; -0.672 z-score in experiment [1]; -0.08 z-score with GST-Co-NF-kB; -0.638 z-score with GST-Dm-Relish; -0.283 z-score in the experiment with GST-Aq-NF-kB.
The like results for “CCGATTAACATCACACGTAAAGCTGATGTTAATCGGGTCTTGATTCGCTTGACGCTGCTG” were, in that order, -0.544 z-score, -0.859 z-score, 0.244 z-score, 0.713 z-score and -0.378 z-score.
The like results for “CCGATTAACATCAACGTCATTGGTGATGTTAATCGGGTCTTGATTCGCTTGACGCTGCTG” were, in that order, 0.21 z-score, 0.212 z-score, 0.284 z-score, 0.307 z-score and -0.156 z-score.
The like results for “CCGATTAACATCAGTTGACATAGTGATGTTAATCGGGTCTTGATTCGCTTGACGCTGCTG” were, in that order, -0.266 z-score, 0.0898 z-score, -0.309 z-score, -0.161 z-score and -0.0904 z-score.
Take “CCGATTAACATCATTTGCTCGATTGATGTTAATCGGGTCTTGATTCGCTTGACGCTGCTG”: the binding signal with GST-Ap-NF-kB RHD is -0.411 z-score; in experiment [1], -0.903 z-score; in the experiment with GST-Co-NF-kB, 0.209 z-score; with GST-Dm-Relish, -0.565 z-score; with GST-Aq-NF-kB, -0.592 z-score.
Regarding “CCGATTAACATCAGGACTCTTATTGATGTTAATCGGGTCTTGATTCGCTTGACGCTGCTG”, the binding signal was -0.166 z-score in the experiment with GST-Ap-NF-kB RHD; -0.0158 z-score in experiment [1]; 0.252 z-score in the experiment with GST-Co-NF-kB; -0.168 z-score with GST-Dm-Relish; 0.283 z-score with GST-Aq-NF-kB.
Taken in the same sequence, the figures for “CCGATTAACATCACTTCGTGAATTGATGTTAATCGGGTCTTGATTCGCTTGACGCTGCTG” were -0.743 z-score, -0.432 z-score, -1.26 z-score, -0.868 z-score and -0.622 z-score.
The like results for “CCGATTAACATCACCTCAACCAATGATGTTAATCGGGTCTTGATTCGCTTGACGCTGCTG” were, in that order, 0.199 z-score, -0.0889 z-score, 0.877 z-score, -0.0663 z-score and 0.352 z-score.
Taken in the same sequence, the figures for “CCGATTAACATCAGGAAATTTAATGATGTTAATCGGGTCTTGATTCGCTTGACGCTGCTG” were 0.119 z-score, 0.233 z-score, 0.522 z-score, 0.667 z-score and 0.92 z-score.
On to “CCGATTAACATCACAACGGAATGTGATGTTAATCGGGTCTTGATTCGCTTGACGCTGCTG”, for which the binding signal with GST-Ap-NF-kB RHD was -0.459 z-score; in experiment [1], 0.635 z-score; in the experiment with GST-Co-NF-kB, 0.00554 z-score; with GST-Dm-Relish it was 1.37 z-score; with GST-Aq-NF-kB it was -0.201 z-score.
The like results for “CCGATTAACATCACGGATAATCCTGATGTTAATCGGGTCTTGATTCGCTTGACGCTGCTG” were, in that order, 0.19 z-score, -0.197 z-score, -0.175 z-score, -0.158 z-score and 0.754 z-score.
Turning to “CCGATTAACATCACATACCTACCTGATGTTAATCGGGTCTTGATTCGCTTGACGCTGCTG”, the binding signal with GST-Ap-NF-kB RHD was determined as 0.892 z-score; in experiment [1] it was 0.306 z-score; with GST-Co-NF-kB it was 0.568 z-score; in the experiment with GST-Dm-Relish it was 0.771 z-score; in the experiment with GST-Aq-NF-kB, 0.0105 z-score.
The like results for “CCGATTAACATCATCCGTCAAATTGATGTTAATCGGGTCTTGATTCGCTTGACGCTGCTG” were, in that order, 0.173 z-score, 0.3 z-score, -0.248 z-score, -0.55 z-score and -0.523 z-score.
Taken in the same sequence, the figures for “CCGATTAACATCAGGAAAATTACTGATGTTAATCGGGTCTTGATTCGCTTGACGCTGCTG” were -0.751 z-score, -0.116 z-score, 0.35 z-score, 1.67 z-score and 0.65 z-score.
